{"source": "patent US11732259B2", "about": "“Peptide oligonucleotide conjugates” (Sarepta Therapeutics, Inc., priority 2011, dated 2023)", "origin": "cited, not measured here", "test_system": "exon 23 of the dystrophin gene", "conditions": "MDX mouse; cited from earlier work"}
{"sequence": "GGCCAAACCTCGGCTTACCTGAAAT (morpholino, chemistry not fully specified) [M23D]", "values": [{"measurement": "Exon 23 skipping and restoration of functional dystrophin expression", "value": "known to induce"}]}
